# Experimental data taken from the RNAGym collection of RNA variant scans (doi:10.1073/pnas.2313332121).
# This sample is rich in variants without activity.
# B1: TPR 5TU (parent)
# chain: GGAUCUUCUCGAUCUAACAAAAAAGACAAAUCUGCCACAAAGCUUGAGAGCAUCUUCGGAUGCAGAGGCGGCAGCCUUCGGUGGCGCGAUAGCGCCAACGUUCUCAACUAUGACACGCAAAACGCGUGCUCCGUUGAAUGGAGUUUAUCAUG
# Variants of: B1
# Test: polymerase ribozyme fitness, log enrichment relative to wild type (log ratio); higher = more active; in vitro selection for triplet polymerase activity
# Procedure, shortened: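 Each subunit of a heterodimeric triplet polymerase ribozyme was mutagenized into a library by PCR, transcribed, and subjected to one round of in vitro selection, run in triplicate. Libraries were annealed with a biotinylated primer, the partner subunit and triplets, incubated frozen at −7 °C, and extended constructs were gel-excised, captured on streptavidin beads and recovered by RT-PCR. Input and output libraries were sequenced on Illumina, keeping genotypes with ≥10 input reads and ≥1 read per output. Fitness is log base 2 of genotype enrichment divided by wild-type enrichment, from inverse-variance-weighted replicate averages.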
row,Variant,polymerase ribozyme fitness (log ratio)
1,G71U A89U U135A,≤ -4.2
2,G70A G84U C116A,-4.13
3,C69U G86C A89U,≤ -4.2
4,A73G U77C G88C,≤ -4.2
5,G70C C103G A120G U127C U134C,≤ -4.2
6,C75G G84A C99U G117U A142C U144C,≤ -4.2
7,C72G A89G G92A C114G,≤ -4.2
8,C75A G83U A89U U101A G126A A138C,≤ -4.2
9,C72U C76G G88U U101G C125G,≤ -4.2
10,A64U G68A C79A,≤ -4.2
11,A73U C108U C149G G152A,≤ -4.2
12,C72A C105U A110G,≤ -4.2
13,A66G C96A A98G G136U,≤ -4.2
14,C69G U77C C87U G140U,≤ -4.2
15,A66G G81A A89U U144A,≤ -4.2
16,A73U C93U,-1.62
17,A73U C93A,-3.39
18,G68U C69A A113G G117A,≤ -4.2
19,G71U C72A A91G C116A A138U,≤ -4.2
20,G68A C93U A98U G117U,≤ -4.2
21,A66U C96A U111A A122G A138C,≤ -4.2
22,G70C C87A A115C,≤ -4.2
23,G65A C75A G81U G94A C105U G140U,-3.7
24,C75A G92C C96G A147U,≤ -4.2

row,Variant,polymerase ribozyme fitness (log ratio)
1,G67C A73G C87A A97C G143A,≤ -4.2
2,C69A G71U C85G C103U G117C,-3.28
3,G65C G84A A89C G141C,≤ -4.2
4,A73U C99A C103G C114U C123G,≤ -4.2
5,G65C G68U C93A C125A,≤ -4.2
6,G74C G94C,≤ -4.2
7,C75G G94A A121G,≤ -4.2
8,G74U C85G,≤ -4.2
9,C69G G71C C79A C87G A138U U144C,≤ -4.2
10,G68A G88U C93A C116G C118A,≤ -4.2
11,C75G A107C C108A,≤ -4.2
12,G68C G84U,≤ -4.2
13,G68U C76G U78G U82G G94U U144C,≤ -4.2
14,G70A G100A A121G U151A,≤ -4.2
15,G74C A89U U146C,≤ -4.2
16,A73C C96U G141U,≤ -4.2
17,G68U C116G U144A U146A U148G,≤ -4.2
18,G65C U77A G94U C108G G128U U146A,≤ -4.2
19,G74U C93U,≤ -4.2
20,G68C C79A C96U C103U C118G,≤ -4.2
21,C75G U82A A91U A113U,≤ -4.2
22,G67A U139C G140A,≤ -4.2
23,G65C G71U,≤ -4.2
24,G67U A73G U90A A97C U111G,≤ -4.2

row,Variant,polymerase ribozyme fitness (log ratio)
1,A73U U102G,≤ -4.2
2,G70A U101C C103G C123U,≤ -4.2
3,G68C C103U,≤ -4.2
4,A73G C85U U130G G141U,≤ -4.2
5,G71A U77C U151C,≤ -4.2
6,G70C G80A U90C G133C,≤ -4.2
7,C72A G143A,≤ -4.2
8,G68A G88U C93A C116G C118A U148G,≤ -4.2
9,G71C G92A,≤ -4.2
10,C75U C87U U90G A97G G143U U148C,≤ -4.2
11,G67U C85G,≤ -4.2
12,C69G A91U,≤ -4.2
13,C69A C76A U109C,≤ -4.2
14,A73G C87G U146G,≤ -4.2
15,C72U C87A,≤ -4.2
16,C69U G86C,≤ -4.2
17,C72G C108U A137C,≤ -4.2
18,A64U G86C G124A,≤ -4.2
19,A66G G67A,≤ -4.2
20,G74U C105G G133C,≤ -4.2
21,C72U C96G U127C C131U G140U U151A,≤ -4.2
22,A73G G86A A137U,≤ -4.2
23,A73G G94C U139C,≤ -4.2
24,C69U C76G,≤ -4.2

row,Variant,polymerase ribozyme fitness (log ratio)
1,C69A G94C,-0.673
2,G74U A97U,-4.18
3,A66C C123U,≤ -4.2
4,G70A A121G C125G,≤ -4.2
5,C69G C76G C96A A138G,≤ -4.2
6,C69G A106C A137C,≤ -4.2
7,G74A U148A,≤ -4.2
8,G74A A91G C96A C99G,≤ -4.2
9,A64G G83A U135C,≤ -4.2
10,G67C C85U G136A G140U,≤ -4.2
11,G68A U77G A113C,≤ -4.2
12,A73U G84C U104G A120U G133C G141A U144C,≤ -4.2
13,C75G G86A C99U,≤ -4.2
14,G68A G88A U102A A137G,≤ -4.2
15,G71U U144G,-1.84
16,A66C C118U U130G,≤ -4.2
17,C69A U139C G140A U148A,≤ -4.2
18,G67A A98U G133U G136U,≤ -4.2
19,A73G A97G,0.222
20,G68U C85U U144A,-4.15
21,C69G G133U,≤ -4.2
22,G70U A91U G92A C95U U135G A138G,≤ -4.2
23,G70A C75G C93A,≤ -4.2
24,G68C U90C C93G C103A A119C G141U U148G,≤ -4.2

row,Variant,polymerase ribozyme fitness (log ratio)
1,C69A G84A C96G U111A,≤ -4.2
2,G68A C93G C129A U130A,≤ -4.2
3,C75U G92C C132A,≤ -4.2
4,C75U A91U,≤ -4.2
5,A66C C105G,≤ -4.2
6,A73U G88U C96A C103G,≤ -4.2
7,C72A U78G C85U A97U G140C,≤ -4.2
8,C72A G88A A121U C132U A142U,≤ -4.2
9,C69G C85U G86A,-3.62
10,G67U U151G,≤ -4.2
11,G70A G83C A91G C95U,≤ -4.2
12,A66G C85G U101G C114U A120C,≤ -4.2
13,C69A C108A,≤ -4.2
14,C72A G140U,≤ -4.2
15,G65A A73U U90G C96G A119C A122C,≤ -4.2
16,C72U C93U,-0.741
17,A66C C87A U90C G100U,≤ -4.2
18,C75A G84U A89G G92C U127A C129G U146A C149G,≤ -4.2
19,A73G G88C C99A U135A A138U,≤ -4.2
20,C75A C85A C108A G126A,≤ -4.2
21,G68A C75A C76U G88A G143U A150C,≤ -4.2
22,A73U C85U G117U,-0.841
23,G65A A110U,≤ -4.2
24,G74C U82C,-4.05

row,Variant,polymerase ribozyme fitness (log ratio)
1,G65A C87G U151C,≤ -4.2
2,G68A A91C A142C,≤ -4.2
3,G68A C93A C103U A115U G117A,≤ -4.2
4,C75G C108A A120U G133U,≤ -4.2
5,A73G U104C,-0.284
6,C72G C76U U82G G94A C105G A137U,≤ -4.2
7,G71A G84U C132U,≤ -4.2
8,C72G C93A A115C,≤ -4.2
9,G70C C75A U109G A137C,≤ -4.2
10,C72U C76G G81A C87G,≤ -4.2
11,C75U G88C C116A A150C,≤ -4.2
12,A73G G81A C85U U101C C149A,≤ -4.2
13,G65U C75U C76G G83U,≤ -4.2
14,G65C A66C G81A C85G A121G,-4.16
15,C75G G81A G92U C125G,≤ -4.2
16,G67A C93G A98G U145A,≤ -4.2
17,G70U A138G,≤ -4.2
18,C72G U109G,≤ -4.2
19,C75G A91U U144A U145C,≤ -4.2
20,G65C C85G,≤ -4.2
21,C69A U104G,-3.09
22,G71C G92U U151A,≤ -4.2
23,G74A U82G G94U G136A,≤ -4.2
24,A66C U90G,≤ -4.2

row,Variant,polymerase ribozyme fitness (log ratio)
1,G70U A73U A89G C95G G141U,≤ -4.2
2,C69A A73G G92C,-1.54
3,G65C C87A A97C U109A C149U,≤ -4.2
4,C72G C76A U82C C95U A107U A137G,≤ -4.2
5,A73C C85G,≤ -4.2
6,G67C C69G A91U,≤ -4.2
7,A66U C79G G88C U134G,≤ -4.2
8,A66U G68C C105A,≤ -4.2
9,C69A C118U,-1.62
10,C69G G71A U78A U82A U151C,≤ -4.2
11,A73U G83A C99U G117C C131G U135C U145G,≤ -4.2
12,C69A U82G C85U C114G,≤ -4.2
13,G70A G141A,-3.46
14,A73G A106C U111A U144A,≤ -4.2
15,C69G C93A,≤ -4.2
16,G70A G100C,≤ -4.2
17,C69A G83A A121C,-1.84
18,C72G C96A C105G,≤ -4.2
19,G68A U77A G81A U111A G126U,≤ -4.2
20,C72U C93G U130C G133C,≤ -4.2
21,A73U C95A U104G,-4.05
22,A73G C95U A122U C125U U127G A138G,≤ -4.2
23,G71C C87U C116U G136C C149U,≤ -4.2
